Values marked as one replicate rest on one cluster of the flow cell; about a third of the high ones do not repeat.
system: ATP; assay: switch fluorescence ratio, 500 uM ATP over buffer (Cy3 cluster intensity, sum of 5 cycles each) (fold (ratio)); higher = stronger signal-on switching upon ATP binding; sequences stand for … in TCGTCGGCAGCGTCAGATGTGTATAAGAGACAGTTTTTTTTTTTTTTTTTTTTTTTTT…TC; settings: aptamer strand: ATP DNA aptamer (quencher-CACCTGGGGGAGTATTGCGGAGGAAGG + anchor), 100 nM annealed; ATP concentration: 500 uM; one replicate
How it was run: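 Clusters with intensities outside 100-1000 RFU were excluded. The remaining Cy3-labelled switching-strand clusters on a modified Illumina MiSeq flow-cell had been annealed to 100 nM quencher-labelled ATP aptamer and imaged in selection buffer, then after 15 min with 500 uM ATP at 22 °C, for five cycles separated by NaOH stripping and re-annealing. The fluorescence ratio, averaged per switch-domain sequence, is each cluster's summed target-cycle Cy3 intensity over its summed buffer-cycle Cy3 intensity.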
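Note: ATP exposure 15 min at 22 °C before imaging.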

Sequence | switch fluorescence ratio
CATCAGAGAT | 0.983
TAGAAGTCA | 1.01
CTTGGTAAAT | 1.01
GTGAGAAACC | 1.03
AGTGGGTGTA | 1.01
CTACTCTCGT | 1.01
CGTTATTTTC | 0.997
GCTGGCGTG | 1
GGCCGGTTAA | 1.02
AGCTATACTA | 2.3
TAACAGGCCT | 0.914
ACTTCCGGTG | 2.53
CCAACGAGAA | 1.15
TACTCAGCTT | 1.41
TATCCCAGTC | 1.05
AACGCTGTG | 0.974
AGCGCACCGA | 1.06
GGCCTCGAAG | 1.02
AAATTTTCTA | 0.999
GCGAACGTGT | 0.989
GGTCCTGACT | 1.05
TTGCTGCG | 0.953
CGAGCCCGT | 1.02
CAATCGCAGA | 1.02
TGGTTAAAGA | 1.01
GTCGCTCAC | 1.17

Sequence | switch fluorescence ratio
TGCGTTTTAC | 1.15
GAAGAACGCA | 1.18
CCTCCGCGGG | 2.38
GTTATTACCG | 0.958
AACAGGTACG | 1.08
AACAGAAAAT | 0.996
AAACACATTA | 1.07
CCCGTCAAGT | 1.35
CGGAGTACTG | 1.15
AGGCGGAAG | 1.02
TGACAGCGAC | 1.35
TACATTTTGC | 0.956
ATGGCGAGGC | 1.03
TACGAAGCGT | 1.24
AGCGGCCGCT | 0.999
AAGAGTTGTT | 0.921
GAGGAGGGTG | 1.05
CGACTAGCTA | 1.29
GGAGTTCGGT | 0.995
ATTGGAAG | 0.986
CACCCTTGCT | 1.14
AGTCTACGTC | 1.04
CCCTCGTATC | 1.35
AGCTATCTAT | 0.951
CTACAGTAGA | 1.01
CCCAGTTGCC | 1.22

Sequence | switch fluorescence ratio
ATTGTAGGCT | 1.01
TAAAAACAGT | 1.32
CGCGCTAATG | 1.1
CTCCAAAGGG | 1.04
TATGACTCAT | 0.966
GCCAGCAAGA | 1.41
GCTAGCTACG | 0.997
ACGGGCGCTT | 1.02
GGCTGATAAG | 0.96
TGCTGGCCAT | 0.983
CTGGGCAATT | 2.56
TAATTTGCCT | 1.03
CTATGCACTC | 1.92
ATCATCTTTA | 0.994
ACCAAGAAGA | 0.964
AGATCTAAAA | 0.999
ACAATTGAT | 1.02
TTTTTAAGTA | 0.961
ATCTTAACCA | 0.959
GAAATGATAC | 1.07
GGAGAACGAC | 1.08
AGAAAGTGCG | 1.03
CTATCCTTTG | 0.988
GGGGCCGCCA | 1.05
CGGTGCGACT | 1.04
TAGTAAAATG | 0.999

Sequence | switch fluorescence ratio
TTCGGAGTGG | 1.02
AGGTATGTTC | 1.06
CAAACATACT | 1.35
ATCTCTTAAC | 0.974
GATTATCGCC | 0.979
TGCGTGTGG | 0.967
AGGCCGGATA | 0.964
TCTTCTGATT | 0.983
TTGAAGCTCA | 1.03
TGAAGAGGAG | 1.01
CTTCATTATT | 0.947
CGGGGACGCC | 1.06
TCCTGAAT | 1.02
GATGTTAAGG | 1.03
GGCACTCTCG | 1.01
ACCTTGGAG | 0.994
AAATCCACTC | 1.02
GTTATTTTGG | 1.02
CGAGAGTCTG | 0.954
TAGGGTCAGG | 0.961
TAGAAACCAT | 1.08
ACGAAGATAG | 1.06
CATTACAGCG | 0.985
TTAGGTTGGA | 0.984
GCTCAGCATA | 1.98
GGTTCGGTCG | 1.01

Sequence | switch fluorescence ratio
TTGGGAGCGA | 1.2
CGTGTAAAAT | 1
CTTGTTGGCC | 1
CGGGTCGTCG | 1.01
TCGCGATAGA | 1.03
CGTCAGCGCA | 1.29
AGGATTATGA | 0.967
ACCGTTAAGG | 0.995
AGATTGCGCG | 1.02
TCGGCGACGG | 0.993
ATCAGAATTT | 0.991
ACTCAGGGTT | 1.01
TATGAAATTT | 0.986
CAGCGAAATA | 1.11
AGGGAGACAC | 1.06
AAGAAATCCC | 1.07
CTACTGGCCC | 1.02
TACAATGGTC | 0.947
GGACGCAGGG | 1.08
CCATTCGGTC | 0.952
CAGGCTAGGG | 0.992
GCCATTTGGA | 1.03
GCCGCCCGTG | 1.03
GTATGCGGCA | 1.01
ATCCCAGTGA | 1.28
GGGTGGAGTA | 0.961

Sequence | switch fluorescence ratio
GTATCTTTGC | 0.982
GTCGTCTGGA | 0.993
AACGCCGCTC | 1.59
AAGAAAGCTT | 0.954
TAATACGGTA | 1.13
CCGAGATAAG | 1.14
GAGGCCAAAG | 1.05
CAGTTACTA | 0.999
ATCGCCGCCC | 1.19
TTGTGCCGCG | 0.998
CGTGTTTGTA | 1.01
ATTTTCTCCA | 1.02
TTGCGACGAA | 1.08
TTAGAGCGCT | 1.12
TCTCGGGGGC | 1.02
AGTAGGATCC | 1.02
ACATCAGTC | 1.05
TAAGCACGTC | 1.16
TGTTATGCAC | 0.978
GGCGAAATAT | 1.1
ACTAGAAGCC | 1.03
TAGCAATGGA | 1.36
GGTCGTGCAT | 0.971
ACACCCATCC | 1.35
GAATCTGCAC | 1.47
ACTTCCTCTT | 1.89

Sequence | switch fluorescence ratio
TCTATCGTTT | 0.984
ATGCGAGC | 1.02
TTTTGACTG | 0.966
CTAGGATGCA | 0.969
GGGTGCCACG | 1.01
ACGAATATTG | 1.01
CCTGCTGCCA | 1.72
CATATGGTTT | 1.01
ATGTATGAGT | 0.976
TCCCGGGGAG | 1.33
GATTATAGTC | 1.01
TAAAGTTTAT | 0.966
CGCGCCCAGT | 1.03
CCATGTCCGA | 1.02
ATTCCGAGTT | 1.31
CGCCGAGACA | 1.02
CGGACTGGAG | 1.03
CCATTATGTT | 0.977
GGGTATTAGA | 0.986
TTTGGGATAA | 1.43
ATGAACTGGT | 1.05
CCTTGCATGG | 1.58
GAAGCCCGTG | 0.987
CCCAGATATT | 1.01
AAAATGAGAC | 1.04
TAGGCTGAA | 0.996

Sequence | switch fluorescence ratio
CGGCGTGACT | 0.975
TACGTTTCTA | 1.01
AATTTGCCAG | 1.02
CTATTTTATA | 1
TTCGGGGTAA | 0.987
ACTTGCTAAA | 1
AGTCCAGATT | 0.985
AGGCGGAACA | 0.948
AATGAAACCT | 2.63
CGGGATATGC | 1.01
TTTGCCTCTA | 1.03
ACCGCCGCCT | 1.14
CTTAGCCAG | 1.03
TCGTACGGTC | 0.993
GATAAATACT | 1.09
TAGATATTAT | 1.02
AATCCAAGGT | 1.02
CTATTAATCA | 1
TTAAGGCTTC | 1.01

Source: the supplement of paper PMC10126150
